{"source": "the supplement of paper PMC11417369", "note": "± gives the standard deviation of the averaged measurements. The list shows a part of the results.", "data": [{"test_system": "PfAP2-I AP2 domain 3 (GST-tagged)", "test": "gcPBM binding intensity (ln(normalized median fluorescence intensity)); higher = stronger DNA binding", "summary_of_the_method": "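Plasmodium falciparum DNA-binding domains carrying a GST tag were expressed in E. coli and applied for 1 h, at about 25 μg on average, to an Agilent 4 × 180k array. The array held primer-extended double-stranded 36-bp intergenic genomic probes together with negative controls, and binding took place in 1× PBS with 1% milk, 0.2 mg/ml BSA, 0.5% salmon testes DNA and 0.03% Triton X-100. An Alexa488 anti-GST antibody detected bound protein, and the array was scanned at 488 nm. Binding intensity is taken as the highest Masliner-normalised natural-log median intensity across replicate spots of either probe orientation.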", "values": [{"sequence": "TATTTTTTTCTTACTACACACATATATATGCTTTCC [CACACA_site4058]", "gcPBM binding intensity (ln)": "8.12 ± 0.58"}, {"sequence": "TTATATTATACATACACACCCATATAACATGTTTTT [CACACA_site6539]", "gcPBM binding intensity (ln)": "7.92 ± 0.73"}, {"sequence": "TCATTAATATTTCATAGTACAATTTTGTCTAATTGT [XGTACX_site6720]", "gcPBM binding intensity (ln)": "7.51 ± 0.37"}, {"sequence": "AAAAAATAATAATAATGTACAAATAAAATAAAAACA [XGTACX_site6568]", "gcPBM binding intensity (ln)": "7.94 ± 0.65"}, {"sequence": "AAGGAATATGTATATACACACAGGTACATATATATA [CACACA_site441]", "gcPBM binding intensity (ln)": "8.16 ± 0.71"}, {"sequence": "ATATATTTTTACCATACACACATATAATAAATATAT [CACACA_site3722]", "gcPBM binding intensity (ln)": "7.96 ± 1"}, {"sequence": "TCGTGTGAAAATATTACACACATTTACTATAGTATC [CACACA_site7590]", "gcPBM binding intensity (ln)": "8.19 ± 0.72"}, {"sequence": "ATAAAAATTGAAACATGTACACATATTCATTTTATA [XGTACX_site7968]", "gcPBM binding intensity (ln)": "7.62 ± 0.24"}, {"sequence": "ATAATAATATTGTGTACACAATAATTTGTCAAATCA [CACACA_site6019]", "gcPBM binding intensity (ln)": "8.16 ± 0.13"}, {"sequence": "ACATATACAAGACACACACACAACGTTTTAATAAAT [CACACA_site7017]", "gcPBM binding intensity (ln)": "8.12 ± 0.46"}, {"sequence": "AAAAAAAAAAAAAAATGTACATATATATATATATAT [XGTACX_site876]", "gcPBM binding intensity (ln)": "9.45 ± 0.2"}, {"sequence": "ATCATGTTATATATGTGTACATATATATGATATAAT [XGTACX_site991]", "gcPBM binding intensity (ln)": "7.71 ± 0.28"}, {"sequence": "TGAACAATGTATAATTGTACGCAACGAAAATAAAAA [XGTACX_site1559]", "gcPBM binding intensity (ln)": "8.09 ± 0.68"}, {"sequence": "ATTATAAATTAAAATACACACATATATACCTAATAT [CACACA_site5541]", "gcPBM binding intensity (ln)": "7.67 ± 0.52"}, {"sequence": "AGAATAAAAATACAAGCACACATGTATGAAATATAT [CACACA_site3213]", "gcPBM binding intensity (ln)": "7.93 ± 0.72"}, {"sequence": "ATATATAATTACACAAATAAAAAAATAAAATGAAAT [CACACA_negctrl_site1513]", "gcPBM binding intensity (ln)": "7.78 ± 0.6"}, {"sequence": "AAAAAAAGAAAAATTGCACACACTTATAAAAATATA [CACACA_site4014]", "gcPBM binding intensity (ln)": "8.13 ± 0.26"}, {"sequence": "TTTTGTTATGAGAGGGTGCTAATATTTGGATATAAA", "gcPBM binding intensity (ln)": "9.72 ± 0.4"}, {"sequence": "AAAAAAAAAAAAAGTAGTACATAATATGTTCCTCCT [XGTACX_site8356]", "gcPBM binding intensity (ln)": "8 ± 0.3"}, {"sequence": "CCCCCCGTGTTATATACACACATAATCAAATAAAAT [CACACA_site4111]", "gcPBM binding intensity (ln)": "10.9 ± 0.4"}, {"sequence": "TCTTATTAAAATATTTATATAGGTAATCACAATATT [GTGCAC_negctrl_site568]", "gcPBM binding intensity (ln)": "7.53 ± 0.57"}, {"sequence": "AGAAATAAGAAATATACACACATATATATATATATA [CACACA_site2808]", "gcPBM binding intensity (ln)": "9.49 ± 0.49"}, {"sequence": "TATAAAATAAGACATGCATGTTATACATATATATAT [TGCATGCA_site314]", "gcPBM binding intensity (ln)": "9.275 ± 0.035"}, {"sequence": "TACCCATGCATTTTTGCACACACATATATATATAAA [CACACA_site1429]", "gcPBM binding intensity (ln)": "9.61 ± 0.028"}, {"sequence": "AGACAGCGCACAAACACACAAACACCCACCCACATA [CACACA_site451]", "gcPBM binding intensity (ln)": "9.29 ± 0.11"}, {"sequence": "TACTTACATATAATAACACACAAGAAAAAAATAAAA [CACACA_site1033]", "gcPBM binding intensity (ln)": "8.02 ± 0.61"}, {"sequence": "ATTTTTGTACACTTCTTTTTTTTTTTTCTTTTATGT [CACACA_negctrl_site1323]", "gcPBM binding intensity (ln)": "8.25 ± 0.44"}, {"sequence": "AAAAAAAAAAATAAAGAAATCAAAATTGATGAATAA [GTGCAC_negctrl_site692]", "gcPBM binding intensity (ln)": "7.32 ± 0.55"}, {"sequence": "TATATATATTTATGCTGTACCAAATAAGAATAGAAA [XGTACX_site7731]", "gcPBM binding intensity (ln)": "7.91 ± 0.37"}, {"sequence": "ATATGAACAAAATAAATCTCTTCAAAAATAATGTTC [GTGCAC_negctrl_site2]", "gcPBM binding intensity (ln)": "7.32 ± 0.56"}, {"sequence": "TAAATGATTGCATAATGTACATATAATTTTTTTTTT [XGTACX_site1988]", "gcPBM binding intensity (ln)": "7.85 ± 0.34"}, {"sequence": "TGTGTAAACATATTCACACACATAAATTCGCATATA [CACACA_site6961]", "gcPBM binding intensity (ln)": "7.62 ± 0.4"}, {"sequence": "TATATAAAAAATAAATGTACACATGTAATAATAAAA [XGTACX_site2640]", "gcPBM binding intensity (ln)": "8.23 ± 0.35"}, {"sequence": "TATAAATATACACCCACACACATATATATATATATA [CACACA_site3745]", "gcPBM binding intensity (ln)": "9.31 ± 0.43"}, {"sequence": "AGCACAAGCACAAGCACACATTTATATATAAATACA [CACACA_site4642]", "gcPBM binding intensity (ln)": "8.11 ± 0.47"}, {"sequence": "ACAAAATATACAAAATGTACAAAATTTACAAAATAT [XGTACX_site6466]", "gcPBM binding intensity (ln)": "7.68 ± 0.64"}, {"sequence": "GTATATTTTAATATGACACACATATTATATATATAT [CACACA_site2483]", "gcPBM binding intensity (ln)": "8.905 ± 0.035"}, {"sequence": "AATCAATTAATATTAGCATAAAATTTTATTATTTTG [XGTACX_negctrl_site479]", "gcPBM binding intensity (ln)": "7.46 ± 0.71"}, {"sequence": "TGACATAAAAAATATACACACTATAATATATATACT [CACACA_site4898]", "gcPBM binding intensity (ln)": "7.58 ± 0.49"}, {"sequence": "TGTATCCATATTTGTTCACACACACCCATATTTATA [CACACA_site9190]", "gcPBM binding intensity (ln)": "8.12 ± 0.57"}, {"sequence": "ATAATATGTATGGTCACACAGACAAGGAAAGAATAA [CACACA_site5164]", "gcPBM binding intensity (ln)": "8.15 ± 0.72"}, {"sequence": "ATTGTTATTTATTGTGTGCGCATTAATACATACATA [GTGCAC_site9982]", "gcPBM binding intensity (ln)": "8.95 ± 0.41"}, {"sequence": "TAATGTTGAGAATTTTGTACATATAGATCAATTTAT [XGTACX_site5426]", "gcPBM binding intensity (ln)": "7.62 ± 0.49"}, {"sequence": "ATTTATTATGAACATACACACAAAAAAAAAAAGTAT [CACACA_site2054]", "gcPBM binding intensity (ln)": "7.76 ± 0.73"}]}]}
